Laboratory results reported in the supplement of paper PMC11876631.
± gives the standard deviation of the averaged measurements. Laboratory Escherichia coli strains with one amino-acid change in an essential protein, pooled on minimal glucose agar with carbenicillin or gentamicin at twice the control MIC (plus kanamycin and chloramphenicol for the plasmids), 48 h. Fold change of barcode share against drug-free plates; higher = less susceptible. Active = above 20 in both replicates (the paper's putatively resistant). '<' = one read or none on drug, '>' = one read or none on a drug-free plate. Shares are relative, so most strains fall below 1 when a few take over. Listed are strains with at least 15 reads on both drug-free plates, and hits; most hits rest on fewer reference reads. Replicate rank correlation about 0.5. Edits are read from barcodes.

B1: cysJ M363Q (protein)
chain: MTTQVPPSALLPLNPEQLARLQAATTDLTPTQLAWVSGYFWGVLNQQPAALAATPAPAAEMPGITIISASQTGNARRVAEALRDDLLAAKLNVKLVNAGDYKFKQIASEKLLIVVTSTQGEGEPPEEAVALHKFLFSKKAPKLENTAFAVFSLGDSSYEFFCQSGKDFDSKLAELGGERLLDRVDADVEYQAAASEWRARVVDALKSRAPVAAPSQSVATGAVNEIHTSPYSKDAPLVASLSVNQKITGRNSEKDVRHIEIDLGDSGMRYQPGDALGVWYQNDPALVKELVELLWLKGDEPVTVEGKTLPLNEALQWHFELTVNTANIVENYATLTRSETLLPLVGDKAKLQHYAATTPIVDQVRFSPAQLDAEALINLLRPLTPRLYSIASSQAEVENEVHVTVGVVRYDVEGRARAGGASSFLADRVEEEGEVRVFIEHNDNFRLPANPETPVIMIGPGTGIAPFRAFMQQRAADEAPGKNWLFFGNPHFTEDFLYQVEWQRYVKDGVLTRIDLAWSRDQKEKVYVQDKLREQGAELWRWINDGAHIYVCGDANRMAKDVEQALLEVIAEFGGMDTEAADEFLSELRVERRYQRDVY
B2: cysJ I458P (protein)
chain: MTTQVPPSALLPLNPEQLARLQAATTDLTPTQLAWVSGYFWGVLNQQPAALAATPAPAAEMPGITIISASQTGNARRVAEALRDDLLAAKLNVKLVNAGDYKFKQIASEKLLIVVTSTQGEGEPPEEAVALHKFLFSKKAPKLENTAFAVFSLGDSSYEFFCQSGKDFDSKLAELGGERLLDRVDADVEYQAAASEWRARVVDALKSRAPVAAPSQSVATGAVNEIHTSPYSKDAPLVASLSVNQKITGRNSEKDVRHIEIDLGDSGMRYQPGDALGVWYQNDPALVKELVELLWLKGDEPVTVEGKTLPLNEALQWHFELTVNTANIVENYATLTRSETLLPLVGDKAKLQHYAATTPIVDMVRFSPAQLDAEALINLLRPLTPRLYSIASSQAEVENEVHVTVGVVRYDVEGRARAGGASSFLADRVEEEGEVRVFIEHNDNFRLPANPETPVIMPGPGTGIAPFRAFMQQRAADEAPGKNWLFFGNPHFTEDFLYQVEWQRYVKDGVLTRIDLAWSRDQKEKVYVQDKLREQGAELWRWINDGAHIYVCGDANRMAKDVEQALLEVIAEFGGMDTEAADEFLSELRVERRYQRDVY
B3: cysJ I458W (protein)
chain: MTTQVPPSALLPLNPEQLARLQAATTDLTPTQLAWVSGYFWGVLNQQPAALAATPAPAAEMPGITIISASQTGNARRVAEALRDDLLAAKLNVKLVNAGDYKFKQIASEKLLIVVTSTQGEGEPPEEAVALHKFLFSKKAPKLENTAFAVFSLGDSSYEFFCQSGKDFDSKLAELGGERLLDRVDADVEYQAAASEWRARVVDALKSRAPVAAPSQSVATGAVNEIHTSPYSKDAPLVASLSVNQKITGRNSEKDVRHIEIDLGDSGMRYQPGDALGVWYQNDPALVKELVELLWLKGDEPVTVEGKTLPLNEALQWHFELTVNTANIVENYATLTRSETLLPLVGDKAKLQHYAATTPIVDMVRFSPAQLDAEALINLLRPLTPRLYSIASSQAEVENEVHVTVGVVRYDVEGRARAGGASSFLADRVEEEGEVRVFIEHNDNFRLPANPETPVIMWGPGTGIAPFRAFMQQRAADEAPGKNWLFFGNPHFTEDFLYQVEWQRYVKDGVLTRIDLAWSRDQKEKVYVQDKLREQGAELWRWINDGAHIYVCGDANRMAKDVEQALLEVIAEFGGMDTEAADEFLSELRVERRYQRDVY
B4: cysJ I458Q (protein)
chain: MTTQVPPSALLPLNPEQLARLQAATTDLTPTQLAWVSGYFWGVLNQQPAALAATPAPAAEMPGITIISASQTGNARRVAEALRDDLLAAKLNVKLVNAGDYKFKQIASEKLLIVVTSTQGEGEPPEEAVALHKFLFSKKAPKLENTAFAVFSLGDSSYEFFCQSGKDFDSKLAELGGERLLDRVDADVEYQAAASEWRARVVDALKSRAPVAAPSQSVATGAVNEIHTSPYSKDAPLVASLSVNQKITGRNSEKDVRHIEIDLGDSGMRYQPGDALGVWYQNDPALVKELVELLWLKGDEPVTVEGKTLPLNEALQWHFELTVNTANIVENYATLTRSETLLPLVGDKAKLQHYAATTPIVDMVRFSPAQLDAEALINLLRPLTPRLYSIASSQAEVENEVHVTVGVVRYDVEGRARAGGASSFLADRVEEEGEVRVFIEHNDNFRLPANPETPVIMQGPGTGIAPFRAFMQQRAADEAPGKNWLFFGNPHFTEDFLYQVEWQRYVKDGVLTRIDLAWSRDQKEKVYVQDKLREQGAELWRWINDGAHIYVCGDANRMAKDVEQALLEVIAEFGGMDTEAADEFLSELRVERRYQRDVY
B5: cysJ L566D (protein)
chain: MTTQVPPSALLPLNPEQLARLQAATTDLTPTQLAWVSGYFWGVLNQQPAALAATPAPAAEMPGITIISASQTGNARRVAEALRDDLLAAKLNVKLVNAGDYKFKQIASEKLLIVVTSTQGEGEPPEEAVALHKFLFSKKAPKLENTAFAVFSLGDSSYEFFCQSGKDFDSKLAELGGERLLDRVDADVEYQAAASEWRARVVDALKSRAPVAAPSQSVATGAVNEIHTSPYSKDAPLVASLSVNQKITGRNSEKDVRHIEIDLGDSGMRYQPGDALGVWYQNDPALVKELVELLWLKGDEPVTVEGKTLPLNEALQWHFELTVNTANIVENYATLTRSETLLPLVGDKAKLQHYAATTPIVDMVRFSPAQLDAEALINLLRPLTPRLYSIASSQAEVENEVHVTVGVVRYDVEGRARAGGASSFLADRVEEEGEVRVFIEHNDNFRLPANPETPVIMIGPGTGIAPFRAFMQQRAADEAPGKNWLFFGNPHFTEDFLYQVEWQRYVKDGVLTRIDLAWSRDQKEKVYVQDKLREQGAELWRWINDGAHIYVCGDANRMAKDVEQADLEVIAEFGGMDTEAADEFLSELRVERRYQRDVY
B6: cysS M294A (protein)
chain: MLKIFNTLTRQKEEFKPIHAGEVGMYVCGITVYDLCHIGHGRTFVAFDVVARYLRFLGYKLKYVRNITDIDDKIIKRANENGESFVAMVDRMIAEMHKDFDALNILRPDMEPRATHHIAEIIELTEQLIAKGHAYVADNGDVMFDVPTDPTYGVLSRQDLDQLQAGARVDVVDDKRNPMDFVLWKMSKEGEPSWPSPWGAGRPGWHIECSAMNCKQLGNHFDIHGGGSDLMFPHHENEIAQSTCAHDGQYVNYWMHSGMVMVDREKMSKSLGNFFTVRDVLKYYDAETVRYFLASGHYRSQLNYSEENLKQARAALERLYTALRGTDKTVAPAGGEAFEARFIEAMDDDFNTPEAYSVLFDMAREVNRLKAEDMAAANAMASHLRKLSAVLGLLEQEPEAFLQSGAQADDSEVAEIEALIQQRLDARKAKDWAAADAARDRLNEMGIVLEDGPQGTTWRRK
B7: cysS M294D (protein)
chain: MLKIFNTLTRQKEEFKPIHAGEVGMYVCGITVYDLCHIGHGRTFVAFDVVARYLRFLGYKLKYVRNITDIDDKIIKRANENGESFVAMVDRMIAEMHKDFDALNILRPDMEPRATHHIAEIIELTEQLIAKGHAYVADNGDVMFDVPTDPTYGVLSRQDLDQLQAGARVDVVDDKRNPMDFVLWKMSKEGEPSWPSPWGAGRPGWHIECSAMNCKQLGNHFDIHGGGSDLMFPHHENEIAQSTCAHDGQYVNYWMHSGMVMVDREKMSKSLGNFFTVRDVLKYYDAETVRYFLDSGHYRSQLNYSEENLKQARAALERLYTALRGTDKTVAPAGGEAFEARFIEAMDDDFNTPEAYSVLFDMAREVNRLKAEDMAAANAMASHLRKLSAVLGLLEQEPEAFLQSGAQADDSEVAEIEALIQQRLDARKAKDWAAADAARDRLNEMGIVLEDGPQGTTWRRK
B8: cysS L387W (protein)
chain: MLKIFNTLTRQKEEFKPIHAGEVGMYVCGITVYDLCHIGHGRTFVAFDVVARYLRFLGYKLKYVRNITDIDDKIIKRANENGESFVAMVDRMIAEMHKDFDALNILRPDMEPRATHHIAEIIELTEQLIAKGHAYVADNGDVMFDVPTDPTYGVLSRQDLDQLQAGARVDVVDDKRNPMDFVLWKMSKEGEPSWPSPWGAGRPGWHIECSAMNCKQLGNHFDIHGGGSDLMFPHHENEIAQSTCAHDGQYVNYWMHSGMVMVDREKMSKSLGNFFTVRDVLKYYDAETVRYFLMSGHYRSQLNYSEENLKQARAALERLYTALRGTDKTVAPAGGEAFEARFIEAMDDDFNTPEAYSVLFDMAREVNRLKAEDMAAANAMASHLRKWSAVLGLLEQEPEAFLQSGAQADDSEVAEIEALIQQRLDARKAKDWAAADAARDRLNEMGIVLEDGPQGTTWRRK
B9: cysS M294Q (protein)
chain: MLKIFNTLTRQKEEFKPIHAGEVGMYVCGITVYDLCHIGHGRTFVAFDVVARYLRFLGYKLKYVRNITDIDDKIIKRANENGESFVAMVDRMIAEMHKDFDALNILRPDMEPRATHHIAEIIELTEQLIAKGHAYVADNGDVMFDVPTDPTYGVLSRQDLDQLQAGARVDVVDDKRNPMDFVLWKMSKEGEPSWPSPWGAGRPGWHIECSAMNCKQLGNHFDIHGGGSDLMFPHHENEIAQSTCAHDGQYVNYWMHSGMVMVDREKMSKSLGNFFTVRDVLKYYDAETVRYFLQSGHYRSQLNYSEENLKQARAALERLYTALRGTDKTVAPAGGEAFEARFIEAMDDDFNTPEAYSVLFDMAREVNRLKAEDMAAANAMASHLRKLSAVLGLLEQEPEAFLQSGAQADDSEVAEIEALIQQRLDARKAKDWAAADAARDRLNEMGIVLEDGPQGTTWRRK
B10: acpS V122A (protein)
chain: MAILGLGTDIVEIARIEAVIARSGDRLARRVLSDNEWAIWKTHHQPVRFLAKRFAVKEAAAKAFGTGIRNGLAFNQFEVFNDELGKPRLRLWGEALKLAEKLGVANMHVTLADERHYACATAIIES
B11: acpS I123A (protein)
chain: MAILGLGTDIVEIARIEAVIARSGDRLARRVLSDNEWAIWKTHHQPVRFLAKRFAVKEAAAKAFGTGIRNGLAFNQFEVFNDELGKPRLRLWGEALKLAEKLGVANMHVTLADERHYACATVAIES

Target: Escherichia coli (laboratory strain)
Experiment: barcode share on antibiotic plates over drug-free plates; higher = less susceptible
Description: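 A pool of E. coli strains, each edited to carry one amino-acid change in an essential protein, was grown for 48 h on minimal glucose agar with or without antibiotic; strain barcodes were sequenced; mean of two replicates.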

[1] = antibiotic: carbenicillin, 2× MIC (3.1 µg/mL)
[2] = antibiotic: gentamicin, 2× MIC (MIC 0.45 µg/mL)

Protein	fold change of barcode share [1]	fold change of barcode share [2]
B1	0.314 ± 0.16	0.0137 ± 0.0032
B2	1.07 ± 0.1	
B3	2.76 ± 0.95	
B4	2.42 ± 0.85	
B5	0.656 ± 0.45	0.0171 ± 0.011
B6	1.4 ± 0.69	0.0439 ± 0.056
B7	0.539 ± 0.056	
B8	0.198 ± 0.1	0.024 ± 0.0081
B9	0.496 ± 0.037	0.00706 ± 0.00086
B10	0.829 ± 0.19	0.325 ± 0.39
B11	0.39 ± 0.091	0.0189 ± 0.021
